About 200 (0.47%) of roughly 43,000 compounds were called active. Roughly 12% stayed inconclusive and do not appear here. Calls follow the shape of the dose curve; as a rule, active = well fitted cell-killing curve with a large enough effect; inconclusive = small, poorly fitted or top-dose-only effect, or effect the other way; inactive = flat fitted curve, though single readings scatter. The list shows a part of the results.

This note sets out measurements from PubChem BioAssay AID1508642 (National Center for Advancing Translational Sciences (NCATS), 2021).
% is scaled to controls: 0 for no effect and ±100 for the full control effect.

A short description of the assay: Cell viability qHTS assay in S16 Pmp22-F2sN cells. Also: nearly all actives have a fitted effect of over 65% in size. The conditions noted are these: S16 Pmp22-F2sN Schwann cells (luciferase reporters placed in the Pmp22 gene) viability, CellTiter-Glo, 24 h; series mostly up to 57.5 µM; activity change, negative = cytotoxicity: at the top concentration. The method, boiled down: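 CellTiter-Glo counter-screen, qHTS, 1536-well. Cells: S16(c9) Pmp22-F2sN, 500-1,000/well in DMEM + 10% FBS. Cpd 23 nL pin transfer, 24 h, 37C/5% CO2. Read: luminescence, CCD imager.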
On the technique in general: In qHTS, concentration-response curves come from the screen itself.
For `CC(=O)N1CCc2cc(Br)cc(S(=O)(=O)NCCc3cccc(C)c3)c21`, the “activity change, negative = cytotoxicity” value is inactive: 2.22%.
Regarding `Cc1ccc(Nc2nc3ccccc3nc2-n2nc(C)cc2C)c(Cl)c1`, the “activity change, negative = cytotoxicity” value was inactive: 15.8%.
With `CSc1ccc(CNC(=O)c2sc3ncnc(N(C)C4CCCCC4)c3c2C)cc1`, the “activity change, negative = cytotoxicity” value was inactive: -6.61%.
As for `Cc1cccc(C(=O)N2c3ncnn3C3(CCCCC3)[C@@H]3CCCC[C@@H]32)c1`, the “activity change, negative = cytotoxicity” value is inactive: -26.5%.
Take `COc1cc2c(cc1NC(=O)COc1ccc(Br)cc1)oc1ccccc12`: the “activity change, negative = cytotoxicity” value was inactive: 2.06%.
Regarding `Cc1cc(C)c(NC(=O)C2CCN(C(=O)N3CCOc4ccccc43)CC2)c(C)c1`, the “activity change, negative = cytotoxicity” value was inactive: 3.51%.
Next, `COc1ccc(-c2cc(C(F)(F)F)n3ncc(-c4ccccc4)c3n2)cc1`: inactive: -15.3%; `COC(=O)c1ccc2c(=O)n(CCc3ccc(S(N)(=O)=O)cc3)c(SCC(=O)C(C)(C)C)nc2c1`: inactive: 0.202%; `CCOC(=O)c1cccc(NS(=O)(=O)c2ccc(-c3coc(C)n3)cc2)c1`: inactive: -0.139%.
On to `CCOCCCn1c(SCC(=O)NCc2ccccc2)nc2c(sc3ccccc32)c1=O`, for which the “activity change, negative = cytotoxicity” value is inactive: 16.6%.
Regarding `COc1ccc(NC(=O)c2nnn(CC(=O)Nc3cccc(C)c3C)c2N)c(OC)c1`, the “activity change, negative = cytotoxicity” value is inactive: -7.47%.
Next, `COc1ccccc1CNc1nc2ccccc2c2nc(-c3cccc(C)c3)nn12`: inactive: 2.46%.
On to `COc1cc([N+](=O)[O-])ccc1NC(=O)N1CCC2(CC1)Nc1ccccc1-n1cccc12`, for which the “activity change, negative = cytotoxicity” value is inactive: 5.86%.
In the case of `COc1ccc2cc3cc(C(=O)N4CCN(c5cccc(C(F)(F)F)c5)CC4)sc3nc2c1`, the “activity change, negative = cytotoxicity” value was inactive: -5.6%.
Consider `COc1ccc(-c2nc3sc(CCNC(=O)C(=O)Nc4cc(F)ccc4F)c(C)n3n2)cc1`, for which the “activity change, negative = cytotoxicity” value was inactive: 1.65%.
For the compound `Cc1cccc(NC(=O)CN(C)S(=O)(=O)c2ccc3c(c2)CCC(=O)N3)c1C`, the “activity change, negative = cytotoxicity” value was inactive: 2.71%.
Regarding `CCOc1ccc(C(=O)Nc2cccc(NC(=O)c3ccc(Cl)cc3Cl)c2)cc1`, the “activity change, negative = cytotoxicity” value was inactive: -7.13%.
Consider `CCCCOc1ccccc1Cn1c(=O)sc2ccccc21`, for which the “activity change, negative = cytotoxicity” value was inactive: -0.984%.
With `CC(C)CCNC(=O)c1cc(-c2ccc(Br)s2)nc2ccccc12`, the “activity change, negative = cytotoxicity” value was inactive: -2.6%.
Next, `COc1ccc(-c2cc(C)no2)cc1S(=O)(=O)N1CCCC(C)C1` (stereo not drawn): inactive: -8.67%; `Cc1cccc(NC(=O)c2ccc3[nH]c(C)cc(=O)c3c2)c1`: inactive: 12.7%; `Cn1c(=O)[nH]c(=O)c2c1nc(CN1CCN(c3ccccc3)CC1)n2Cc1c(F)cccc1Cl`: inactive: -4.03%.
Regarding `COc1cccc(NC(=O)Nc2ccc3snnc3c2)c1`, the “activity change, negative = cytotoxicity” value was inactive: -29.8%.
With `CCOc1ccc2nc(N3CCCC(C(=O)Nc4ccc(CC)cc4)C3)sc2c1` (stereo not drawn), the “activity change, negative = cytotoxicity” value is inactive: -5.7%.
Next, `CCc1ccc2oc(-c3cccc(NC(=O)COc4ccccc4Cl)c3)nc2c1`: inactive: 2.42%; `CCN(CC)S(=O)(=O)c1ccc2c(c1)N(CC(=O)NCCc1ccccc1)C(=O)CO2`: inactive: 5.08%; `Cc1ccc(NC(=O)Cn2c(=O)nc(-c3ccccc3)c3ccccc32)cc1`: inactive: 0.501%.
For the compound `CCCCNC(=O)CCn1nc(-c2ccc(Cl)cc2)c2ccccc2c1=O`, the “activity change, negative = cytotoxicity” value is inactive: -24.2%.
Next, `CCCCOc1ccc(CNC(=O)c2cnc3sc(N4CCCCCC4)nn3c2=O)cc1`: inactive: 0.225%; `Cc1c(C(=O)NCc2cccc(F)c2)oc2c1-c1[nH]ncc1CC2`: inactive: -7.56%; `Cc1cccc(C(=O)n2nc(-c3cccnc3)nc2NCc2ccc(F)cc2)c1`: inactive: -1.43%.
Take `COc1cc(NC(=O)C(CC(C)C)N2Cc3ccccc3C2=O)cc(OC)c1` (stereo not drawn): the “activity change, negative = cytotoxicity” value was inactive: -11.2%.
Take `CCOc1ccc(NC(=O)CSc2nc3ccsc3c(=O)n2CC)cc1`: the “activity change, negative = cytotoxicity” value is inactive: -4.29%.
For the compound `CCN(CC)C(=O)c1ccc2c(c1)N(Cc1ccccc1F)C(=O)c1ccccc1S2=O` (stereo not drawn), the “activity change, negative = cytotoxicity” value is inactive: -0.113%.
In the case of `COc1ccc(NC(=O)C2CCCN(S(=O)(=O)c3c(C)[nH]c(=O)[nH]c3=O)C2)cc1` (stereo not drawn), the “activity change, negative = cytotoxicity” value is inactive: -0.0934%.
In the case of `CCCCOc1ccc(CNC(=O)CN2C(=O)CCn3nc(-c4cn(C)c5ccccc45)cc32)cc1`, the “activity change, negative = cytotoxicity” value is inactive: 0.568%.
Next, `CCC1CN(C(=O)NCc2ccc(F)cc2)c2cc(Cl)ccc2O1` (stereo not drawn): inactive: -7.05%; `COc1ccc(C2CC(=O)c3cc(-c4nc(-c5ccc(C)cc5)cs4)c(=O)[nH]c3C2)cc1` (stereo not drawn): inactive: 9.8%; `CCOC(=O)c1c(C)[nH]c(C)c1S(=O)(=O)N(C)CC(=O)NCc1ccc(C)cc1`: inactive: -4.97%.
As for `COc1ccc(-c2nn(-c3ccc(C)c(Cl)c3)c3c2cnc2cc(OC)c(OC)cc23)cc1`, the “activity change, negative = cytotoxicity” value was inactive: 10.6%.
With `Nc1nc(Nc2cccc(Cl)c2)sc1C(=O)c1ccc(F)cc1`, the “activity change, negative = cytotoxicity” value is inactive: -26.9%.
Turning to `CCOc1ccc(/C=C/C(=O)Nc2sc3c(c2C(=O)OC)CCCC3)cc1`, the “activity change, negative = cytotoxicity” value was inactive: -1.24%.
Next, `COc1cc(OC)c(NC(=O)CC(C)S(=O)(=O)c2ccc3c(c2)NC(=O)CO3)cc1Cl` (stereo not drawn): inactive: 2.06%; `COc1ccc(S(=O)(=O)NCCc2csc(-c3cccc(F)c3)n2)cc1OC`: inactive: 2.48%.
As for `CCn1cc(S(=O)(=O)c2ccc(OC)cc2)c(=O)c2cc(F)c(N3CCCCCC3)cc21`, the “activity change, negative = cytotoxicity” value was inactive: -12.3%.
As for `COc1ccc(NC(=O)c2cccn2-c2nnc(N3CCCCC3)s2)c(OC)c1`, the “activity change, negative = cytotoxicity” value was inactive: -0.865%.
For `CCOC(=O)COc1cc(C)c(Cl)cc1C(=O)c1ccn2nc(-c3ccc(OC)cc3)cc2n1`, the “activity change, negative = cytotoxicity” value was inactive: 27.6%.
Regarding `O=C(CSc1ncc2c(n1)-c1cc(Cl)ccc1N(Cc1ccccc1)S2(=O)=O)NCCc1ccccc1`, the “activity change, negative = cytotoxicity” value was inactive: 21.2%.
